97 compounds from PubChem BioAssay AID485344 (National Center for Advancing Translational Sciences (NCATS), 2010) can be followed below.

In all, about 340,000 compounds went through this assay and about 6,900 (2%) were called active. Rule as the data show it: active = inhibition above about 30%; inactive = below that, where a call was filed. This is a selection; strong and weak results do not stand in their true shares. Entries without a call were filed so in the source.

This test has as its target D(2) dopamine receptor (Homo sapiens) (UniProt P14416). Kind of test: HTS Assay for Allosteric Antagonists of the Human D2 Dopamine Receptor: Primary Screen for Antagonists. Also: 0% is about no effect. The following applies: HEK293 TREx D2 cells, calcium flux, dopamine EC80; at 10 µM; stronger effect = higher value. The procedure, abridged: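 Overnight-induced (tetracycline, 30 C) HEK293 T-REx cells carrying force-coupled D2 receive a no-wash calcium dye, then compound, then EC80 dopamine at 180 s; signals are read kinetically throughout.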
Sequence of UniProt P14416 (P14416 whole entry, looked up): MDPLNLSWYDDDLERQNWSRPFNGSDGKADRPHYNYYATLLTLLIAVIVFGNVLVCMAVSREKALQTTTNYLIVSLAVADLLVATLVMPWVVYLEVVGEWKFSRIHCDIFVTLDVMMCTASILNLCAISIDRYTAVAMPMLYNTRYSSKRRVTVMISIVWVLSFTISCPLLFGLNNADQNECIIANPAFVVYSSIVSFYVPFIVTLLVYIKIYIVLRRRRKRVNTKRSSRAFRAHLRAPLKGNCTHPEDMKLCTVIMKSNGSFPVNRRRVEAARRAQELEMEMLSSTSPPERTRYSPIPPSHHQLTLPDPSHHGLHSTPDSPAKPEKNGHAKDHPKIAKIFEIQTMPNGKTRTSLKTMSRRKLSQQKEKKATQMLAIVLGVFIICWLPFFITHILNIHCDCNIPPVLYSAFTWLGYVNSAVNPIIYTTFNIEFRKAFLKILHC
In the case of `COc1cc(C(=O)Nc2cc(C)c(O)c(-c3nc4ccccc4s3)c2)cc(OC)c1OC`, the inhibition was -0.911%.
Take `O=C(NCCO)c1ccc(-c2nnc(Nc3ccc(OC(F)(F)Cl)cc3)c3ccccc23)cc1`: the inhibition was -6.48%.
Turning to `Cc1ccc(C(=O)NCCn2cc(SCC(=O)Nc3cc(C)on3)c3ccccc32)cc1`, the inhibition was active: 32.5%.
Take `COc1ccc(CNc2ncnc3c2c(-c2ccccc2)cn3-c2ccc(C)c(Cl)c2)cc1`: the inhibition worked out at 16.2%.
For `O=C(Cn1cc(S(=O)(=O)Cc2ccccc2F)c2ccccc21)Nc1ccc(F)c(Cl)c1`, the inhibition was 4.86%.
Take `COc1cccc(C(=O)Nc2nc(-c3nnn(-c4cccc(Cl)c4C)c3C)ns2)c1`: the inhibition worked out at 1.2%.
For `COc1ccc(NC(=O)Cn2c(=O)n(-c3ccc(OC)cc3)c(=O)c3sc4ccccc4c32)cc1` the value was -18.8%; for `COc1ccc2c(CNCc3ccco3)c(C(=O)O)n(Cc3cccc(F)c3)c2c1`, -10.8%.
For `CCOc1ccccc1CN1CCN(C/C=C/c2ccc(OC)cc2)CC1CCO` (configuration not stated) the value was active: 33.6%; for `CCCCn1c(=O)c2oc3ccccc3c2n(Cc2ccc(C)cc2)c1=O`, -9.27%; for `CC(C)c1ccc2occ(-c3nn[nH]n3)c(=O)c2c1`, active: 32.4%.
For `COc1ccc2ncc3c(-c4ccc(C)c(C)c4)nn(CC(=O)Nc4ccccc4)c3c2c1` the value was 7.61%.
`Cc1cc(SCC(=O)Nc2ccc(F)cc2F)nc(=O)[nH]1`: the inhibition turned out to be 4.15%.
Take `CCOC(=O)c1ccc(NC(=O)c2nc(SCc3ccc(F)cc3)ncc2Cl)cc1`: the inhibition is -2.75%.
Regarding `COC(=O)c1c(NC(=O)c2cc(=O)c3cc(C)cc(C)c3o2)sc2c1CCC2`, the inhibition was -1.36%.
As for `COc1ccccc1NC(=O)c1cc2cc3ccc(OC)c(Cl)c3nc2s1`, the figure is 13%; as for `Cc1ccc(CC(=O)NCc2nc(-c3ccccc3)no2)cc1`, -15.8%.
For `O=C(NCCc1ccccc1Cl)c1cc2ccccn2n1`, the inhibition came out at 7.84%.
Consider `Cc1ccc(NC(=O)Cn2nc(C(F)(F)F)c3c2CCCC3)cc1`, for which the inhibition was 2.67%.
For the compound `Cc1ccc(S(=O)(=O)NCCc2nnc3ccc(SCC(=O)Nc4c(C)cc(C)cc4C)nn23)cc1`, the inhibition is -1.3%.
In the case of `CC1CCN(C(=O)CSc2nnc3ccc(-c4cccnc4)nn23)CC1`, the inhibition was active: 37.8%.
`CCOc1ccc(CCNC(=O)c2c3c(nc4ccccc24)C(=O)N(C2CCCCC2)C3)cc1`: the inhibition was determined as 2.96%.
For `Cc1ccc(S(=O)(=O)N2CCCc3cc(NC(=O)c4ccc(Cl)cc4)ccc32)cc1` the value was 13.4%; for `CCn1c(CNC(=O)c2ccc(OC)cc2)nnc1SCC(=O)Nc1cccc(C)c1`, 0.186%.
With `COc1cccc(C2CC(c3ccc(Cl)cc3)n3nc(N)nc3N2)c1` (configuration not stated), the inhibition is active: 56.6%.
As to `COc1ccccc1C(=O)NC(=O)Nc1ccc(-c2cc(C(F)(F)F)nn2-c2ccccc2)cc1`, the inhibition amounted to 10.6%.
As for `CCc1ccc(C(=O)c2cn(CC(=O)Nc3ccc4c(c3)OCO4)c3ccc(Cl)cc3c2=O)cc1`, the inhibition came to 10.9%.
Regarding `CCOc1ccc2c(c1)NC(c1ccc(OCC)c(OCC)c1)=NC(c1ccc(F)cc1)=N2`, the inhibition was -5.4%.
On to `CCc1ccc(N(CC)C(=O)c2cn(C)c(=O)c3cc(OC)c(OC)cc23)cc1`, for which the inhibition is -6.3%.
Take `Cc1ccc(-n2ncc3c(NC4CCCCC4)ncnc32)cc1C`: the inhibition was 21.4%.
With `CCOC(=O)C1(Cc2ccccc2C(F)(F)F)CCN(C2CCC2)CC1`, the inhibition was active: 32.1%.
Regarding `CSc1ccc(CCNC(=O)Cn2ncc3c([nH]c4ccccc43)c2=O)cc1`, the inhibition was determined as 0.782%.
With `CCOC(=O)c1cc2c(=O)n3ccccc3nc2n(CCOC)c1=NC(=O)c1c(-c2c(F)cccc2Cl)noc1C`, the inhibition amounted to 7.91%.
As for `O=C(c1ccccc1)n1nc(-c2ccc(Cl)cc2)nc1NCc1ccco1`, the inhibition was -4.75%.
For the compound `CC(C)(C)c1cc(C(=O)N/N=C/c2cc3c(cc2Br)OCO3)n[nH]1`, the inhibition was active: 49.5%.
Take `Cc1cccc(NC(=O)CN2C(=O)C(c3ccc(F)cc3)=NC23CCCCCC3)c1C`: the inhibition was -0.24%.
Consider `Cc1cc2c(cc1S(=O)(=O)NCc1ccc(F)cc1)OCC(=O)N2`, for which the inhibition came to 10.2%.
As for `COc1ccc(NC(=O)CN2C(=O)COc3ccc(S(=O)(=O)NC4CCCC4)cc32)cc1OC`, the figure is -6.62%; as for `CC(C)Oc1ccc(S(=O)(=O)N2CCCCC2)cc1NC(=O)CN1CCCC1c1cccs1` (configuration not stated), active: 33%.
`COc1ccc(OCC(=O)N2CCN(C(=O)c3ccc(OC)c(OC)c3)CC2)cc1`: the inhibition is -5.73%.
Consider `COc1cn(CC(=O)Nc2ccc(C)cc2)c(CN2CCCCC2)cc1=O`, for which the inhibition was -28.5%.
On to `Cc1cccc(C)c1NC(=O)CCSCCc1ccccn1`, for which the inhibition was -2.44%.
As for `CC(=O)N1CCc2cc(Br)cc(S(=O)(=O)CCC(=O)NCc3ccc(F)cc3)c21`, the figure is -11.1%; as for `O=C(CCNS(=O)(=O)c1ccc2c(c1)CCN2C(=O)C1CC1)Nc1ccc(Cl)cc1`, -2.43%; as for `Cc1c(NS(=O)(=O)c2ccc(C(C)(C)C)cc2)c(=O)n(-c2ccccc2)n1C`, 0.9%.
As for `Cc1ccc2occ(CC(=O)Nc3c(C)cccc3C)c2c1`, the figure is 21.7%; as for `Cc1cc(C)cc(NCc2nnc3n2CCCCC3)c1`, -4.05%.
With `CCCN(C(=O)c1ccc2c(=O)n3c(nc2c1)CCCCC3)c1cccc(Cl)c1`, the inhibition was -3.65%.
For `O=C(NCCc1nc2ccccc2n1Cc1ccc(Cl)cc1)c1ccccc1` the value was -3.06%; for `CCOC(=O)c1ccccc1NC(=O)c1sc2nc(-c3ccc(F)cc3)cn2c1C`, -26.2%; for `Cc1nnc(NC(=O)CSc2nc3c([nH]c4ccccc43)c(=O)n2-c2cccc(Cl)c2)s1`, 10.9%.
Regarding `COc1ccc(C)cc1NC(=O)NCCn1nnc2cc(S(=O)(=O)N(C)C)ccc21`, the inhibition worked out at 5.45%.
As for `Cc1ccc(C(=O)OCc2cc(=O)n3nc(CC(C)C)sc3n2)cc1`, the figure is -23.3%; as for `COc1ccc(CCNC(=O)c2cnc3sc(N4CCCCCC4)nn3c2=O)cc1`, 4.32%; as for `CCC1CN(C(=O)N2CCC(C(=O)NCc3cccs3)CC2)c2ccccc2O1` (configuration not stated), 5.99%.
Turning to `Cc1ccc(N2C(=O)CSC23C(=O)N(CC(=O)NCCc2ccccc2)c2ccccc23)cc1` (configuration not stated), the inhibition was -3.62%.
In the case of `Cc1ccc(NC(=O)c2ccc(-c3ccccc3)s2)cc1`, the inhibition is 3.48%.
As for `COc1cccc(CNCc2c(C(=O)O)n(Cc3ccc(C)cc3)c3cc(C)ccc23)c1OC`, the figure is -8.31%; as for `O=C(Nc1ccc2oc(-c3ccc(Br)cc3)nc2c1)c1cc2ccccc2o1`, -5.89%; as for `CCC1CCCCN1CCCNC(=O)c1ccc2c(c1)N(Cc1cccc(Cl)c1)C(=O)c1ccccc1S2(=O)=O` (configuration not stated), -2.42%.
`CC(=O)c1ccc(NC(=O)c2sc(-n3nc(C)c(Cc4ccc5c(c4)OCO5)c3C)nc2C)cc1`: the inhibition was found to be 16.8%.
`COc1ccc(Cl)cc1NC(=O)CSc1nnc(COc2ccccc2)n1N`: the inhibition is active: 53.7%.
On to `O=c1oc2c(CN3CCOCC3)c(O)ccc2cc1-c1ccccc1`, for which the inhibition is -5.68%.
As to `COc1ccc(N2CCN(C(=O)c3noc4c3CCCCC4)CC2)cc1`, the inhibition worked out at 1.5%.
`COc1ccc(C2CC(=O)Nc3c2c(C)nn3-c2nc(C)cc(C)n2)c(OC)c1OC` (configuration not stated): the inhibition was 4.17%.
As to `COC(=O)c1c(NC(=O)COc2ccc(C(C)C)cc2)sc2c1CCCC2`, the inhibition was 11%.
Turning to `CCc1cccc(NC(=O)CCn2nc(C)cc2C)c1`, the inhibition is -13.5%.
`COc1ccccc1CCNC(=O)C1(c2cccs2)CCOCC1`: the inhibition was -15.4%.
On to `Cc1cccc(CSc2nc3ccncc3n2CC(=O)N(C)C2CCCCC2)c1`, for which the inhibition worked out at 3%.
For `CCCS(=O)(=O)Nc1cccc(-c2cn3ccsc3n2)c1` the value was 6.88%; for `COc1ccc(NC(=O)Cn2c(=O)oc3cc(S(=O)(=O)N4CCCC4)ccc32)cc1OC`, 4.29%.
Take `COc1ccc(CCNC(=O)c2ccc3nc(CCc4ccccc4)oc3c2)cc1OC`: the inhibition was -7.94%.
Consider `COc1ccc(NC(=O)Cn2cnc3c(nc4n3CCCCC4)c2=O)cc1Cl`, for which the inhibition was 4.64%.
Take `COc1ccc(OC)c(NC(=O)c2nnn(CC(=O)Nc3ccc(C(C)C)cc3)c2N)c1`: the inhibition amounted to 7.33%.
With `Cc1cccc(N2CCN(C(=O)Cc3c(C(=O)O)c(C)cn3C)CC2C)c1` (configuration not stated), the inhibition is 3.89%.
As for `COc1cc(CN2CCN(c3cccc(C)c3C)CC2)cc(OC)c1O`, the inhibition was active: 41.6%.
As for `COc1ccc(N2CCN(C(=O)C3CCCN(S(=O)(=O)c4ccc5c(c4)oc(=O)n5C)C3)CC2)cc1` (configuration not stated), the inhibition was -5.4%.
As to `O=C(COc1ccc(Br)cc1Cl)NC1CCN(Cc2ccccc2)CC1`, the inhibition is active: 67%.
Regarding `COc1ccc(C2C(C(=O)NCc3ccco3)CCC(=O)N2c2ccc(OC)cc2)cc1` (configuration not stated), the inhibition was active: 38.3%.
Regarding `CC(C)c1ccc(CNCCSc2nnnn2-c2ccccc2)cc1`, the inhibition worked out at 20.4%.
For `CCNC(=O)C1CCCN(c2nn3cc(-c4ccc(C)cc4)nc3s2)C1` (configuration not stated), the inhibition is -1.88%.
Regarding `Cc1ccc(C)c(NS(=O)(=O)c2ccc(OCC(=O)NCc3cccnc3)cc2)c1`, the inhibition was active: 42.3%.
As for `CCC(C)S(=O)(=O)c1oc(-c2ccc(F)cc2)nc1S(=O)(=O)c1ccc(F)cc1` (configuration not stated), the figure is -8.47%; as for `Cc1cc(C)cc(NC(=O)C2CCN(c3nc4ccccc4nc3C(F)(F)F)CC2)c1`, 1.99%; as for `CCOc1ccc(-n2nc3ccc(NC(=O)COc4ccccc4)cc3n2)cc1`, -7.78%.
Turning to `O=C(N/N=C/c1cccs1)c1c[nH]c2ccccc12`, the inhibition is active: 32.7%.
Take `Cc1ccc(OCCCCn2nnc3sc4c(c3c2=O)CCC(C)C4)cc1` (configuration not stated): the inhibition was -6.55%.
On to `CCn1c(=N)c(C(=O)NC2CCCC2)cc2c(=O)n3cc(C)ccc3nc21`, for which the inhibition is -22.2%.
As to `CCOC(=O)c1c(-c2ccccc2)oc2cc(Br)c(OCc3ccccc3)cc12`, the inhibition is -7.45%.
As for `CCOc1ccc(C(=O)NCCc2csc(-c3cccnc3)n2)cc1`, the inhibition stood at 6.88%.
Regarding `CN1CCN(C2(CNC(=O)COc3ccc(C(C)(C)C)cc3)CCCCC2)CC1`, the inhibition was found to be 1.35%.
`Cc1ccc(Cl)cc1Nc1nn2c(=O)c3ccc(C(=O)NC4CCC(C)CC4)cc3nc2s1` (configuration not stated): the inhibition is -2.77%.
For `O=C(Cn1c(=O)n(-c2ccc(F)c(Cl)c2)c(=O)c2sc3ccccc3c21)NC1CCCCC1`, the inhibition was determined as 17.2%.
In the case of `COc1cccc(NC(=O)C2CCN(S(=O)(=O)c3c(C)noc3/C=C/c3cccs3)CC2)c1`, the inhibition worked out at 2.66%.
In the case of `CCN1CCN(c2cc(C)c3cc(NC(=O)/C=C/c4ccc(OCCC(C)C)cc4)ccc3n2)CC1`, the inhibition is 2.45%.
`Cc1ccc(NC(=O)CSc2nc(C3CCCC3)nc3c2c(=O)n(C)c(=O)n3C)c(C)c1`: the inhibition was -1.21%.
As to `O=C(CSc1nccn1-c1ccc(F)cc1)Nc1cccc2ccccc12`, the inhibition is 12.7%.
